Measured values from paper PMC3608554.
Results are given in words; binding and its absence hold for the method and conditions named. Binding seen in cells or lysates may run through a third protein. Some binding calls cover weakened binding; strength is not graded here.

Legend:
[1] = molecular target: T1, BANK1, endogenous in human B-cell lines (human (endogenous in Daudi)) (UniProt Q8NDB2); assay: co-IP; endogenous proteins, resting (non-stimulated) Daudi cells; IP anti-PLCg2 and blot anti-BANK1, or reverse IP anti-BANK1 and blot anti-PLCg2
T1 sequence: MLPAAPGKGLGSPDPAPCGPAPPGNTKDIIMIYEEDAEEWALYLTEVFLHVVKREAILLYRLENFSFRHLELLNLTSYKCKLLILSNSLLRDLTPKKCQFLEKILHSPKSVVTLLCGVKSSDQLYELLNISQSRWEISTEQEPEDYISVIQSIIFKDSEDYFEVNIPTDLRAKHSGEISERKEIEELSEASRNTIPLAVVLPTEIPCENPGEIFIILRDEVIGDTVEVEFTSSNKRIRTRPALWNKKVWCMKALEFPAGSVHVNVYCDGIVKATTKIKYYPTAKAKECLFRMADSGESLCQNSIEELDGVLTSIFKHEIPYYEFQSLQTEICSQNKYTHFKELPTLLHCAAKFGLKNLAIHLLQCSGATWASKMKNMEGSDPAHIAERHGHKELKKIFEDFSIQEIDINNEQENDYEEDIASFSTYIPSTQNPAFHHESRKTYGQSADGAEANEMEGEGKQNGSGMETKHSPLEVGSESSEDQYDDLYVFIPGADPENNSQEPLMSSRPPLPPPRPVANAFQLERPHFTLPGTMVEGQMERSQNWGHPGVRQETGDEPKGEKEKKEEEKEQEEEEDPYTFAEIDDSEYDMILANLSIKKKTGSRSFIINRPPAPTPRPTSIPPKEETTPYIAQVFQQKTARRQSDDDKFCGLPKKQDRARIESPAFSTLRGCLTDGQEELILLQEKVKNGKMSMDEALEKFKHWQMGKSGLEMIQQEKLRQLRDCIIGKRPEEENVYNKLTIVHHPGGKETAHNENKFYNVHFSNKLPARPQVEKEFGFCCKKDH

[2] = molecular target: T1, BANK1, endogenous in human B-cell lines (human (endogenous in Daudi)); assay: co-IP; endogenous proteins, Daudi cells stimulated with 10 ug/mL goat F(ab')2 anti-human IgM; 1% NP-40 lysate; IP anti-PLCg2 and blot anti-BANK1, or reverse IP anti-BANK1 and blot anti-PLCg2; also in shControl and BLK-silenced (shBLK) Daudi cells, where the association was reduced

B1: PLCg2, endogenous in human B-cell lines (enzyme, UniProt P16885 1-1265)
chain: MSTTVNVDSLAEYEKSQIKRALELGTVMTVFSFRKSTPERRTVQVIMETRQVAWSKTADKIEGFLDIMEIKEIRPGKNSKDFERAKAVRQKEDCCFTILYGTQFVLSTLSLAADSKEDAVNWLSGLKILHQEAMNASTPTIIESWLRKQIYSVDQTRRNSISLRELKTILPLINFKVSSAKFLKDKFVEIGAHKDELSFEQFHLFYKKLMFEQQKSILDEFKKDSSVFILGNTDRPDASAVYLHDFQRFLIHEQQEHWAQDLNKVRERMTKFIDDTMRETAEPFLFVDEFLTYLFSRENSIWDEKYDAVDMQDMNNPLSHYWISSSHNTYLTGDQLRSESSPEAYIRCLRMGCRCIELDCWDGPDGKPVIYHGWTRTTKIKFDDVVQAIKDHAFVTSSFPVILSIEEHCSVEQQRHMAKAFKEVFGDLLLTKPTEASADQLPSPSQLREKIIIKHKKLGPRGDVDVNMEDKKDEHKQQGELYMWDSIDQKWTRHYCAIADAKLSFSDDIEQTMEEEVPQDIPPTELHFGEKWFHKKVEKRTSAEKLLQEYCMETGGKDGTFLVRESETFPNDYTLSFWRSGRVQHCRIRSTMEGGTLKYYLTDNLTFSSIYALIQHYRETHLRCAEFELRLTDPVPNPNPHESKPWYYDSLSRGEAEDMLMRIPRDGAFLIRKREGSDSYAITFRARGKVKHCRINRDGRHFVLGTSAYFESLVELVSYYEKHSLYRKMRLRYPVTPELLERYNMERDINSLYDVSRMYVDPSEINPSMPQRTVKALYDYKAKRSDELSFCRGALIHNVSKEPGGWWKGDYGTRIQQYFPSNYVEDISTADFEELEKQIIEDNPLGSLCRGILDLNTYNVVKAPQGKNQKSFVFILEPKQQGDPPVEFATDRVEELFEWFQSIREITWKIDTKENNMKYWEKNQSIAIELSDLVVYCKPTSKTKDNLENPDFREIRSFVETKADSIIRQKPVDLLKYNQKGLTRVYPKGQRVDSSNYDPFRLWLCGSQMVALNFQTADKYMQMNHALFSLNGRTGYVLQPESMRTEKYDPMPPESQRKILMTLTVKVLGARHLPKLGRSIACPFVEVEICGAEYDNNKFKTTVVNDNGLSPIWAPTQEKVTFEIYDPNLAFLRFVVYEEDMFSDPNFLAHATYPIKAVKSGFRSVPLKNGYSEDIELASLLVFCEMRPVLESEEELYSSCRQLRRRQEELNNQLFLYDTHQNLRNANRDALVKEFSVNENQLQLYQEKCNKRLREKRVSNSKFYS
binding [1]: no binding (condition: cells not stimulated with anti-IgM)
binding [2]: binds
